# According to PubChem BioAssay (NCI):
# Some compounds were tested as several samples or in several runs, with calls that do not always agree.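 48-hour exposure, single concentration, 96-well plates; percent growth endpoint where 0 means no net growth. Active: below 10.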 Some entries of the source have several records that differ or are many. This is not the full list of results. The source may hold further records. The screen tested this drug many times, at its own concentration, as given; each value is one run. Brackets with × give the number of equal values in this list.
# Tested on: HOP-62 NSCLC
# Assay: NCI-60 one-dose screen, 48 h (100 = growth as untreated, 0 = no growth, -100 = all killed)
compound,measurement,setting,value
COc1cccc2c1C(=O)c1c(O)c3c(c(O)c1C2=O)C[C@@](O)(C(=O)CO)C[C@@H]3OC1CC(N)C(O)C(C)O1 (stereo not given in full),growth,"0.25 µM, runs of 2015","inactive: 19.8, 23 (2×), 23.5, 24.1, 20.7, 22.8 (2×), 31.1, 30.9, 29.2 (2×), 30.1, 24.4 (2×), 28.2 (2×), 28.6, 19.5, 21, 34, 25.7, 11.4, 15.8, 19.9, 16.2, 13.4, 25.1, 17.4, 11.9, 18, 20.6, 13.6, 25 (2×), 27.2, 28.9 (3×), 29.4, 29.6, 25.2 (2×), 12.5, 21.2, 17.5, 16.6, 13.5, 10.1, 18.2, 22.2 (2×), 24.2, 38.8, 29 (2×), 24.7 (3×), 27.6, 36.2 (2×), 41, 26.9, 29.8, 25.9, 21.6, 19.3, 13.9, 16.8, 15.9, 12.2, 25.5, 20.9, 17, 28.7, 38.1, 18.7, 23.1% and active: 2.33, -3.76, 4.5, 5.28, 6.44, 7.41%"
same,growth,"0.25 µM, runs of 2016","inactive: 26.7, 25.5, 21.2, 27.4 (3×), 25.2, 26.6 (2×), 31.4, 14, 17.3, 14.8, 14.4, 20.9, 16.3, 22.4, 10.7, 15.5, 15.3, 20.3, 18.8, 17, 19.9, 30.1, 30.8, 29.5, 25.4 (2×), 22.8, 23.9, 25.9, 26.3 (2×), 34.1, 11.9, 21.1, 17.6, 28.8, 14.2, 16, 13.5, 29.6, 24.2 (2×), 26.8, 23.7, 18.7, 21.3, 22.1, 23.3, 29.4, 22.5, 32.8, 27.1, 25.7, 30.6, 23.8, 29.7, 26.9, 30.3, 38, 26.4 (2×), 27 (2×), 32.4 (2×), 37.5, 33.7, 30.4, 29.8, 29.3, 34.9, 28.4, 27.2% and active: 9.53, 9.87, 7.41, 8.5%"
same,growth,"0.25 µM, runs of 2017","inactive: 24.8 (2×), 31.1, 33.2, 12.7, 12.4, 15 (2×), 11, 11.9, 22.3, 14, 17.7, 21.3 (2×), 18.6, 13.6, 14.1, 12, 10.8, 13, 16.6, 18.9 (2×), 15.7, 25.3, 26.6, 29.7, 21.5, 27.9, 33, 16, 18.4, 29, 20.9 (2×), 22.7, 22, 13.5, 17.2, 21.9, 10.7, 14.3, 11.6, 16.5 (3×), 10.1, 18.1, 19.2, 25.1, 15.5, 16.2, 15.1, 20.6, 18.2, 20.7, 18.7, 10.6, 12.6, 11.4, 14.5, 12.2, 13.2% and active: 9.91, -2.4, 8.29, 7.66, 2.44, 8.79, 7.06, -1.81, 9.54, 8.59, 3.98, 9.99, 9%"
same,growth,"0.25 µM, runs of 2018","active: 8.94, 8.76, 9.84, 7.37, 5.8, 6.21% and inactive: 16.2, 12.4, 17.6, 16.8, 15.3, 19.7, 18.2, 18.6 (2×), 23.4, 32.9, 34.3, 32, 39.1, 29.6, 33.6 (2×), 23.3, 15.8, 19.6, 12.9, 12.1, 24.5, 24.1, 10.7, 14.9, 21.1, 21 (2×), 17.4, 18, 14.5, 24.8, 28.9 (2×), 29, 27.9, 31.9, 19.1, 21.5, 17.5, 12.6%"
same,growth,"0.25 µM, runs of 2019","inactive: 18.4, 11.7, 15.9, 24.9, 24.4, 39.1, 35.5, 34.9, 32.6, 23.4, 18.8, 12, 19.2 (2×), 15.7, 16.5, 16.3, 20.1, 25.4, 24, 31.7, 22.2, 33.9, 33.2, 22.5, 17.3, 12.2, 12.3, 11.3 (2×), 14.7, 11 (2×), 19.4, 19.8, 14.2, 15.5, 10.6, 21.6, 17.1, 17.6% and active: 6.54, 3.28, 7.09, 2.56, -7.14, 9.71%"
same,growth,"0.25 µM, runs of 2020","inactive: 25.7, 31.5, 26.9, 32, 21.6, 17.6, 17.7, 20.7, 20.4, 14.1, 16.6, 22, 17.9, 27.7, 28.4, 17.4, 23.7, 34.3, 29.8, 33.2, 28.1, 18.8, 20.9, 23.6%"
same,growth,"0.25 µM, runs of 2021","inactive: 23.9, 28.7, 21.2, 22 (3×), 35.6, 19.5, 26.7, 22.3, 17.4, 22.8, 18.8, 20.4, 13.7, 17.3, 13.1 (2×), 19.4, 10.1, 25.9, 26.8, 27.2 (2×), 13.3, 18.7, 23, 13.8, 10.7, 11.5, 19.9, 18.2, 16.7, 22.4, 14, 11.6, 13.4, 25.5% and active: 8.45, 9.85, 6.57, 6.38, 9, 4.22, 8.41, 6.64, 7.37, 7.61, 8.11, 4.76, 2.88, 0.731, -2.84, 8.09%"
same,growth,"0.25 µM, runs of 2022","active: -14.8, -9.62, -4.55, 5.93, 9.15, 1.91% and inactive: 30.9, 37.5, 14.3, 12.9, 27.2, 27.9, 24.4, 22.1, 20.3, 17.5, 11.3, 11.5, 39.4, 50.1, 23.2, 31.3, 31.4, 54.5, 13.3, 12.1, 13.8, 13.5, 23.7%"
same,growth,"25 µM, runs of 1991","active: -24.1, -40.7, -31.8, -52.4, -37.7, -42.6, -39.2, -55.3, -38.6, -12.6, -30.1, -42.3, -36.3, -44.7, -27.5, -46.2, -49.7% and inactive: 97.6%"
same,growth,"25 µM, runs of 1992","active: -29.7, -48.7, -64.7, -44.7 (2×), -38.8, -36.9, -54.7 (2×), -22.5, -36.8, -22.4, -55.5, -53.3, -58, -38, -42.2, -38.1, -37.5, -26.4, -35.8, -33.1, -50.3, -65.1, -61.7, -50.9, -47.3, -60.4, -63.6, -84.1, -50.2, -29.6, -45.1, -76.7, -58.1, -18.4, -52, -57.9, -56.6, -42.8, -40.8, -39.4 (2×), -45.4 (2×), -68.8, -40.9, -48.3 (2×), -51.9, -40.5, -16.3, -40.3 (2×), -58.4, -38.6, -47.9, -55.7, -53.2, -28.4, -43.6 (2×), -51, -54.4, -47, -46.9 (2×), -49.6, -52.1 (2×), -71, -30.3 (2×), -54 (2×), -20.7, -51.3 (2×), -31.4, -47.5, -32.7, -38.7, -65.6, -60.7, -79.1, -81.2, -52.7, -21.8, -51.4, -44.2, -40.2, -34.5, -61.8, -42.7, -35, -71.7, -84.6, -84.3, -64.2, -27.3, -53.1, -62.1, -70.5, -42.4, -39.1, -29.3, -55.8, -29.8, -46.2, -62.9, -68.6, -72.1, -19.1, -74.5, -66, -20.9, -59.7% and inactive: 13.9%"
same,growth,"25 µM, runs of 1993","active: -24.4, -22.9, -58.9 (2×), -47.3, -51.4, -62.6, -28, -41.4, -67.7, -34.1, 6.3, -18.4, -15.2, -58.2, -22.5, -0.907, -20.8, -58.1, -23.3, -44.1, -12.8, -24.1, -23.4, -33.2, -70.4, -50.5, -25.9, -57.1, -29.7, -57.5, -35.1, -52.3, -37.8 (2×), -32.8, -52, -38.4, -18.9, -15.6, -50.8, -42.1, -65.2, -45.1, -67.2, 4.44, -32.9, -65.6%"
same,growth,"25 µM, runs of 1994","active: -33.3, -55.2 (2×), -20.7, -26.3, -50, -33.4, -57.8, -29.4, -37.7, -41.7, -43.1, -25, -34.6, -8.82, -18.7, -39.3, -44.8, -66.3, -36.2, -37.3, -65.9, -25.3, -22.9, -17.2, -62.5, -10.2, -23.7, -46, -3.18, -96.7, -31.5% and inactive: 87.7%"
same,growth,"25 µM, runs of 1995","active: -8.76, -10.4, -40.8, -59, -57.6, -22.2 (2×), -36.1, -32.9, 6.09, -53.6, -17.9, -6.21, -30.5, -31.8, -23, -42.2, -34.5, -64, -42.3, -37.3 (2×), -57.4, -23.8, -22, -34.6, -34, 2.01, -50.9, -44.9, -34.9, -48.7, -37.4, -53.7, -69, -60.8, -52.8%"
same,growth,"25 µM, runs of 1996","active: -18.3, -34.9, -25.8, -15.8, -4.63, -11.6, -2.46, -21, -7.87, -23.9, -12.8, -18.8, -19.1, -28.4, -36.3, -32.9, -17.5, -23.6, 2.03, -14, -16.8, -31.8, -59, -34.1, -6.46, -23.7, -55.9, -10.7, -31.4, -32.7, -16.7, -30.9, -25.5 (2×), -24.5, -45.2, -47.6, -35.7, -34.3, -34.5, -36.1, -65.6, -25.9, -2.53, 3.89, -23, -46.5, -20.7, -27.9, -15, -12.7% and inactive: 45.3%, 98.3%, 20.1%"
same,growth,"25 µM, runs of 1997","active: -9.79, 3.41, -16.4, -23.3, -5.84, -19.3, -24.3, -16.3, -18, -35.7, -20.9, -30.6, -33.3, -46.6, -24.5, -22.7, -29.2, -26.2, -28.6, -17.3, -7.07, -29.9, -36.9, -29, -36.6, -17, -7.48, -34.6, -37, -36.3, -60.8, -62.6, -34.2, -38.4, 8.43, -22.8, -24.2, -33.7, -28.7, -16.7, -12.3%"
